# Assay results taken from the supplement of paper PMC12217912.
# Some of the results follow. Sequences were assembled here from the parent chain. Values near 0.05 are background.
# B1: TEV protease; numbered along this chain (parent)
# chain: MGESLFKGPRDYNPISSSICHLTNESDGHTTSLYGIGFGPFIITNKHLFRRNNGTLVVQSLHGVFKVKDTTTLQQHLVDGRDMIIIRMPKDFPPFPQKLKFREPQREERICLVTTNFQTKSMSSMVSDTSCTFPSGDGIFWKHWIQTKDGQCGSPLVSTRDGFIVGIHSASNFTNTNNYFTSVPKNFMELLTNQEAQQWVSGWRLNADSVLWGGHKVFMVKPEEPFQPVKEATQL
# Variants of: B1
# Assay: raw area under fraction-flipped curve 0-4 h after induction (AUC4h, not background-subtracted), DNA-recorder readout of cleavage of the substrate (dimensionless); higher = more cleavage of the substrate by the protease variant
# Conditions: temperature: 34 °C; time window: 0-4 h after rhamnose induction
# Description: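 In vivo DNA recorder in E. coli TOP10(DE3) ΔrhaA at 34 °C. Each TEVp single-site mutant (parent TEVp 0) is paired with a single-site variant of the 7-mer TEVs (canonical ENLYFQ|S). The substrate sits between flexible linkers in a Bxb1-sfGFP-TEVs-SsrA fusion, so cleavage stabilises Bxb1 and speeds flipping of a recombination array, read by NGS. The value is the raw area under the fraction-flipped curve over 0-4 h after rhamnose induction (AUC4h), with ≥20 reads per time point. It is not background-subtracted; inactive controls average about 0.047.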
# 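Note: Bxb1 expression induced with 0.2% (w/v) L-rhamnose at OD600 near 0.5, cultures sampled hourly, flipped fraction per protease–substrate barcode pair counted by paired-end Illumina sequencing.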
variant,measurement,value
MGESLFKGPRDYNPISSSICHLTNESDGHTTSLYGGGFGPFIITNKHLFRRNNGTLVVQSLHGVFKVKDTTTLQQHLVDGRDMIIIRMPKDFPPFPQKLKFREPQREERICLVTTNFQTKSMSSMVSDTSCTFPSGDGIFWKHWIQTKDGQCGSPLVSTRDGFIVGIHSASNFTNTNNYFTSVPKNFMELLTNQEAQQWVSGWRLNADSVLWGGHKVFMVKPEEPFQPVKEATQL [I36G],area with substrate EALYFQS,0.0612
same,area with substrate EFLYFQS,0.0413
same,area with substrate EGLYFQS,0.0446
same,area with substrate EKLYFQS,0.0515
same,area with substrate EQLYFQS,0.0269
same,area with substrate ESLYFQS,0.0418
same,area with substrate EVLYFQS,0.0383
MGESLFKGPRDYNPISSSICHLTNESDGHTTSLYGIGFGPEIITNKHLFRRNNGTLVVQSLHGVFKVKDTTTLQQHLVDGRDMIIIRMPKDFPPFPQKLKFREPQREERICLVTTNFQTKSMSSMVSDTSCTFPSGDGIFWKHWIQTKDGQCGSPLVSTRDGFIVGIHSASNFTNTNNYFTSVPKNFMELLTNQEAQQWVSGWRLNADSVLWGGHKVFMVKPEEPFQPVKEATQL [F41E],area with substrate EALYFQS,0.0654
same,area with substrate ECLYFQS,0.0584
same,area with substrate EFLYFQS,0.0603
same,area with substrate EHLYFQS,0.0511
same,area with substrate ELLYFQS,0.0485
same,area with substrate EMLYFQS,0.0626
same,area with substrate ERLYFQS,0.0553
same,area with substrate ESLYFQS,0.0589
same,area with substrate EYLYFQS,0.0592
MGESLFKGPRDYNPISSSICHLTNESDGHTTSLYGIGFGPYIITNKHLFRRNNGTLVVQSLHGVFKVKDTTTLQQHLVDGRDMIIIRMPKDFPPFPQKLKFREPQREERICLVTTNFQTKSMSSMVSDTSCTFPSGDGIFWKHWIQTKDGQCGSPLVSTRDGFIVGIHSASNFTNTNNYFTSVPKNFMELLTNQEAQQWVSGWRLNADSVLWGGHKVFMVKPEEPFQPVKEATQL [F41Y],area with substrate EALYFQS,0.121
same,area with substrate ECLYFQS,0.107
same,area with substrate EDLYFQS,0.121
same,area with substrate EFLYFQS,0.0933
same,area with substrate EGLYFQS,0.109
same,area with substrate EHLYFQS,0.113
same,area with substrate EILYFQS,0.0994
same,area with substrate ELLYFQS,0.102
same,area with substrate EMLYFQS,0.112
same,area with substrate EPLYFQS,0.0959
same,area with substrate EQLYFQS,0.118
same,area with substrate ERLYFQS,0.0906
same,area with substrate ESLYFQS,0.102
same,area with substrate ETLYFQS,0.109
same,area with substrate EVLYFQS,0.0814
same,area with substrate EWLYFQS,0.0923
MGESLFKGPRDYNPISSSICHLTNESDGHTTSLYGIGFGPFIITNGHLFRRNNGTLVVQSLHGVFKVKDTTTLQQHLVDGRDMIIIRMPKDFPPFPQKLKFREPQREERICLVTTNFQTKSMSSMVSDTSCTFPSGDGIFWKHWIQTKDGQCGSPLVSTRDGFIVGIHSASNFTNTNNYFTSVPKNFMELLTNQEAQQWVSGWRLNADSVLWGGHKVFMVKPEEPFQPVKEATQL [K46G],area with substrate EALYFQS,0.0886
same,area with substrate ECLYFQS,0.0954
same,area with substrate EDLYFQS,0.109
same,area with substrate EELYFQS,0.106
same,area with substrate EGLYFQS,0.065
same,area with substrate EHLYFQS,0.0845
same,area with substrate EILYFQS,0.0869
same,area with substrate EKLYFQS,0.0932
same,area with substrate EMLYFQS,0.0794
same,area with substrate EPLYFQS,0.0936
same,area with substrate EQLYFQS,0.0983
same,area with substrate ERLYFQS,0.0806
same,area with substrate ESLYFQS,0.0798
same,area with substrate ETLYFQS,0.0732
same,area with substrate EVLYFQS,0.0862
same,area with substrate EWLYFQS,0.085
same,area with substrate EYLYFQS,0.0787
MGESLFKGPRDYNPISSSICHLTNESDGHTTSLYGIGFGPFIITNKHLTRRNNGTLVVQSLHGVFKVKDTTTLQQHLVDGRDMIIIRMPKDFPPFPQKLKFREPQREERICLVTTNFQTKSMSSMVSDTSCTFPSGDGIFWKHWIQTKDGQCGSPLVSTRDGFIVGIHSASNFTNTNNYFTSVPKNFMELLTNQEAQQWVSGWRLNADSVLWGGHKVFMVKPEEPFQPVKEATQL [F49T],area with substrate EALYFQS,0.0613
same,area with substrate ECLYFQS,0.0573
same,area with substrate EDLYFQS,0.0618
same,area with substrate EELYFQS,0.057
same,area with substrate EGLYFQS,0.0374
same,area with substrate EILYFQS,0.0572
same,area with substrate EKLYFQS,0.0487
same,area with substrate ELLYFQS,0.0544
same,area with substrate EQLYFQS,0.0498
same,area with substrate ESLYFQS,0.0554
same,area with substrate EWLYFQS,0.0537
same,area with substrate EYLYFQS,0.0609
MGESLFKGPRDYNPISSSICHLTNESDGHTTSLYGIGFGPFIITNKHLFSRNNGTLVVQSLHGVFKVKDTTTLQQHLVDGRDMIIIRMPKDFPPFPQKLKFREPQREERICLVTTNFQTKSMSSMVSDTSCTFPSGDGIFWKHWIQTKDGQCGSPLVSTRDGFIVGIHSASNFTNTNNYFTSVPKNFMELLTNQEAQQWVSGWRLNADSVLWGGHKVFMVKPEEPFQPVKEATQL [R50S],area with substrate EALYFQS,0.141
same,area with substrate ECLYFQS,0.106
same,area with substrate EELYFQS,0.133
same,area with substrate EGLYFQS,0.0875
same,area with substrate EHLYFQS,0.0995
same,area with substrate EILYFQS,0.0992
same,area with substrate EKLYFQS,0.0782
same,area with substrate EQLYFQS,0.0941
same,area with substrate ERLYFQS,0.099
same,area with substrate ESLYFQS,0.121
same,area with substrate EVLYFQS,0.098
same,area with substrate EYLYFQS,0.0822
MGESLFKGPRDYNPISSSICHLTNESDGHTTSLYGIGFGPFIITNKHLFTRNNGTLVVQSLHGVFKVKDTTTLQQHLVDGRDMIIIRMPKDFPPFPQKLKFREPQREERICLVTTNFQTKSMSSMVSDTSCTFPSGDGIFWKHWIQTKDGQCGSPLVSTRDGFIVGIHSASNFTNTNNYFTSVPKNFMELLTNQEAQQWVSGWRLNADSVLWGGHKVFMVKPEEPFQPVKEATQL [R50T],area with substrate EALYFQS,0.138
same,area with substrate ECLYFQS,0.0988
same,area with substrate EELYFQS,0.172
same,area with substrate EGLYFQS,0.0857
same,area with substrate EHLYFQS,0.131
same,area with substrate EILYFQS,0.108
same,area with substrate EKLYFQS,0.13
same,area with substrate ELLYFQS,0.113
same,area with substrate EPLYFQS,0.146
same,area with substrate EQLYFQS,0.166
same,area with substrate ERLYFQS,0.168
same,area with substrate ESLYFQS,0.115
same,area with substrate ETLYFQS,0.114
same,area with substrate EVLYFQS,0.111
same,area with substrate EWLYFQS,0.104
MGESLFKGPRDYNPISSSICHLTNESDGHTTSLYGIGFGPFIITNKHLFRQNNGTLVVQSLHGVFKVKDTTTLQQHLVDGRDMIIIRMPKDFPPFPQKLKFREPQREERICLVTTNFQTKSMSSMVSDTSCTFPSGDGIFWKHWIQTKDGQCGSPLVSTRDGFIVGIHSASNFTNTNNYFTSVPKNFMELLTNQEAQQWVSGWRLNADSVLWGGHKVFMVKPEEPFQPVKEATQL [R51Q],area with substrate EALYFQS,0.131
same,area with substrate EELYFQS,0.128
same,area with substrate EGLYFQS,0.104
same,area with substrate EILYFQS,0.0988
same,area with substrate EKLYFQS,0.129
same,area with substrate EMLYFQS,0.112
same,area with substrate EPLYFQS,0.166
same,area with substrate EQLYFQS,0.148
same,area with substrate ERLYFQS,0.164
same,area with substrate ESLYFQS,0.113
same,area with substrate EWLYFQS,0.116
MGESLFKGPRDYNPISSSICHLTNESDGHTTSLYGIGFGPFIITNKHLFRRNHGTLVVQSLHGVFKVKDTTTLQQHLVDGRDMIIIRMPKDFPPFPQKLKFREPQREERICLVTTNFQTKSMSSMVSDTSCTFPSGDGIFWKHWIQTKDGQCGSPLVSTRDGFIVGIHSASNFTNTNNYFTSVPKNFMELLTNQEAQQWVSGWRLNADSVLWGGHKVFMVKPEEPFQPVKEATQL [N53H],area with substrate EALYFQS,0.0904
same,area with substrate EDLYFQS,0.123
same,area with substrate EELYFQS,0.114
same,area with substrate EFLYFQS,0.0759
same,area with substrate EGLYFQS,0.0747
same,area with substrate EHLYFQS,0.0938
same,area with substrate EILYFQS,0.0709
same,area with substrate ELLYFQS,0.0847
same,area with substrate EMLYFQS,0.0962
same,area with substrate EPLYFQS,0.0938
same,area with substrate EQLYFQS,0.112
same,area with substrate ERLYFQS,0.0795
same,area with substrate ESLYFQS,0.0797
same,area with substrate EVLYFQS,0.0887
same,area with substrate EWLYFQS,0.085
